# In publication PMC4336329 (PLoS ONE, 2015):
# Hit rate of the full screen: of about 310,000 compounds, about 2,200 (0.71%) showed an effect of 50% or more. Effects have a minus sign here. The list shows a part of the results.
# Target: human ether-à-go-go-related gene (hERG) potassium channel (human, UniProt Q12809)
# Test: primary screen, population patch clamp on CHO cells stably expressing hERG
# human ether-à-go-go-related gene (hERG) potassium channel, sequence (Q12809 whole entry, looked up): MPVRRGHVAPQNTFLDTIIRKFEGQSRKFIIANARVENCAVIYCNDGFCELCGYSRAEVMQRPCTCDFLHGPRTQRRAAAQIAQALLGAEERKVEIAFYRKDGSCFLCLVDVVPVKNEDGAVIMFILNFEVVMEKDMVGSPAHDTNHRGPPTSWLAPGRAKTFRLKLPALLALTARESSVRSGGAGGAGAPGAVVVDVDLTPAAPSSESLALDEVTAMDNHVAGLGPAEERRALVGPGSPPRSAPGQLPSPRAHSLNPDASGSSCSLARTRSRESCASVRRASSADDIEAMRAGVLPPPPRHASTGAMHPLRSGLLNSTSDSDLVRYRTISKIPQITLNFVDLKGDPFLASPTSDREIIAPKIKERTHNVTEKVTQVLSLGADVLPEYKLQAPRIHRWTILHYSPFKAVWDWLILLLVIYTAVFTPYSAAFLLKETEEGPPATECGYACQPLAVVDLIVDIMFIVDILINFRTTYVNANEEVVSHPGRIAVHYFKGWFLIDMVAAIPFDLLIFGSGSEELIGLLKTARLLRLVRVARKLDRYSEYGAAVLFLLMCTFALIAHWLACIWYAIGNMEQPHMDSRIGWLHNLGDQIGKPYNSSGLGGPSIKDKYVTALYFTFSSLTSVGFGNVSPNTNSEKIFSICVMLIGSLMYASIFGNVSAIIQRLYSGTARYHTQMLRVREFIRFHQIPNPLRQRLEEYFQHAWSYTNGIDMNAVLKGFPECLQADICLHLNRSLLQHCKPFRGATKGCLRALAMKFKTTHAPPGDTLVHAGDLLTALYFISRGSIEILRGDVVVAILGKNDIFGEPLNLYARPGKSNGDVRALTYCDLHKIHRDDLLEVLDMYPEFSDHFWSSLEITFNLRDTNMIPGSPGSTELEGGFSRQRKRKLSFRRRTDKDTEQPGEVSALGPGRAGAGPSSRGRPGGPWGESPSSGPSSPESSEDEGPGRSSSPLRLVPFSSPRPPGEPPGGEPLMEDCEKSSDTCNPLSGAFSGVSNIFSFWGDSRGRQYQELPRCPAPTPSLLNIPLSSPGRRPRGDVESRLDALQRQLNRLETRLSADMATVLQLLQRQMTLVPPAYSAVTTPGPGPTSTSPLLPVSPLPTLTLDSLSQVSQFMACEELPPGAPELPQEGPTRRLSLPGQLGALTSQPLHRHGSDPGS
row,Compound,"hERG current change (%, negative = inhibition) at 1uM [%]"
1,CCN(CC)S(=O)(=O)c1ccc(C(C)NC(=O)Cc2c[nH]c3ccccc23)cc1 (centres unmarked),14.2
2,CS(=O)(=O)N(CC(=O)O)c1cc(Cl)cc(Cl)c1,7.58
3,Cc1ccc([N+](=O)[O-])cc1NC1OC(CO)C(O)C1O (centres unmarked),7.5
4,COC(=O)c1cc(C(=O)Nc2cc(C)on2)cc([N+](=O)[O-])c1,14.1
5,CCN1CCc2c(sc(NC(=O)c3ccc4ccccc4c3)c2C(N)=O)C1.Cl,10.1
6,O=S(=O)(c1cc(F)ccc1F)N1CCC2(CC1)OCCN2S(=O)(=O)c1ccccc1,3.79
7,c1ccc2c(c1)OCC(c1nnc3n1-c1ccccc1SC3)O2 (centres unmarked),6.06
8,O=C(NCc1ccccn1)Nc1ccccc1,10.9
9,CN1CCN(S(=O)(=O)c2ccc(SCCOc3ccc(Cl)cc3)nc2)CC1,7.43
10,Cc1csc2nc(CNC(=O)CCC(=O)O)cn12,15.5
11,CC(C)(C)OC(=O)N1Cc2ccccc2C[C@H]1C(=O)NCC(=O)Nc1ccc2c(c1)OCCO2,8.69
12,Cc1cccn2c(=O)c3cc(C(=O)NCC4CCCO4)c(=N)n(CCN4CCOCC4)c3nc12 (centres unmarked),-50.1
13,COCc1[nH]nc2c1C(c1ccccc1F)C(C#N)=C(N)O2 (centres unmarked),11.5
14,CC(C)C[C@@H](CO)N(Cc1ccccc1)S(=O)(=O)N(Cc1ccccc1)[C@@H](CO)CC(C)C,9.28
15,O=C1CCCN1CN(C(=O)c1ccc2c(c1)OCO2)c1cccc(Cl)c1,5.22
16,O=C(CCCC(=O)N(CC(=O)NC1CCCCC1)CC1CCCO1)Nc1ccccn1 (centres unmarked),-0.417
17,O=[N+]([O-])c1ccc(/C=N/N2CCCCC2)cc1,12.1
18,O=C(CCC(=O)NC1CCCCCC1)Nc1nnc(C(F)(F)F)s1,-1.34
19,Cc1ccsc1C(=O)OCC(=O)Nc1c(C)n(C)n(-c2ccccc2)c1=O,13.4
20,CN(C)c1nc(OCCOC(=O)c2ccccc2)nc(N(C)C)n1,1.21
21,COc1ccc(-c2cc(C(=O)N3CCN(c4cccc(C)c4C)CC3)c3ccccc3n2)cc1OC,6.67
22,COc1ccc(N2CCN(CCCNC(=O)C3CCCN(S(=O)(=O)c4c(C)n[nH]c4C)C3)CC2)cc1 (centres unmarked),7.79

row,Compound,"hERG current change (%, negative = inhibition) at 1uM [%]"
1,Cc1cc(NC(=O)c2cc3ccccc3o2)ccc1NC(=O)c1ccccc1,13.2
2,O=C(COc1ccc2ccc(=O)oc2c1)NCCCN1CCCC1=O,12.9
3,N#Cc1ccc2ccn(CC(=O)NCc3ccccc3)c2c1,9.25
4,CCc1nnc(NC(=O)c2ccc(OC)cc2)s1,16.9
5,O=Cc1cccn1-c1ccc2ccccc2c1,-0.0861
6,CC1(C)C(c2ccccc2)=[N+]([O-])C2(CCCCC2=O)N1O (centres unmarked),1.25
7,C/C(CC(=O)N1CCN(C=O)CC1)=N\NC(=O)c1ccc([N+](=O)[O-])cc1,7.62
8,CCN(CC)S(=O)(=O)c1ccc(NC(=O)c2cc(-c3ccccc3)nc3ccccc23)cc1,5.97
9,Cc1ccc(-c2nc3c(c(=O)c4ccccc4n3C)c(=O)n2-c2ccccc2)cc1,7.73
10,COc1cc(/C=N/NC(=O)c2ccc(N3CCCC3=O)cc2)ccc1O,0.359
11,CC(=O)Nc1cccc(-c2csc(Nc3cccc(C)n3)n2)c1,2.44
12,COc1ccc(CCNC(=O)NC23CC4CC(CC(C4)C2)C3)cc1OC,4.15
13,CC1CCc2c(sc(NC(=O)c3cccs3)c2C(=O)O)C1 (centres unmarked),22.8
14,COc1ccccc1NC(=O)COc1ccc(C(=O)OCC(=O)NC(C)(C)C)cc1OC,10.6
15,Cc1cc(C(=O)OCC(=O)N(CC(C)C)c2c(N)n(Cc3ccccc3)c(=O)[nH]c2=O)c2ccccc2n1,1.51
16,CNS(=O)(=O)c1cc(Nc2ncnc3sccc23)ccc1C,11.6
17,Cc1nn(-c2ccccc2)c(C)c1C(=O)OCc1ccc(C#N)cc1,16.5
18,COc1cccc(NC(=O)c2ccc(NC(=O)C(C)(C)C)cc2)c1,14.4
19,Cc1ccccc1CN(C)C1CCN(C)CC1,20.9
20,COc1ccc(Cl)cc1C(=O)NC(=S)Nc1cc(-c2nc3ccccc3[nH]2)ccc1C,12.1
21,C/C(=N\NC(=O)Cc1cccn1C)c1ccc2ccccc2c1,11.9
22,Cc1cc(=O)[nH]c2c1cnn2Cc1ccccc1,3.97
